To fix the notation:
T1: RBFOX1 RRM RbFoxmut (Fox-RRM*) (Homo sapiens, UniProt Q9NWB1 109-208, R118D;E147R;N151S;E152T)
T1 sequence: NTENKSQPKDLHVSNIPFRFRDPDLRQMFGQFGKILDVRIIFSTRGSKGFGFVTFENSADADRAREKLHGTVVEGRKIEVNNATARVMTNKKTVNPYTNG

B1: GACGGAC (DNA:RNA)
RNA: GGGAGACCGGAAUUCAGAUUGUCCGACGGACUUAAAUCCCGUCGUAGCCACCA
DNA 1: CAATCTGAATTCCGGTCTCCC
DNA 2: TGGTGGCTACGACGGGATT
B2: CCCGAAC (DNA:RNA)
RNA: B1 RNA with G25C, A26C, G29A
DNA 1: CAATCTGAATTCCGGTCTCCC
DNA 2: TGGTGGCTACGACGGGATT
B3: GCUGUAA (DNA:RNA)
RNA: B1 RNA with A26C, C27U, G29U, C31A
DNA 1: CAATCTGAATTCCGGTCTCCC
DNA 2: TGGTGGCTACGACGGGATT
B4: UAGAUGG (DNA:RNA)
RNA: B1 RNA with G25U, C27G, G28A, G29U, A30G, C31G
DNA 1: CAATCTGAATTCCGGTCTCCC
DNA 2: TGGTGGCTACGACGGGATT
B5: GAGAAGC (DNA:RNA)
RNA: B1 RNA with C27G, G28A, G29A, A30G
DNA 1: CAATCTGAATTCCGGTCTCCC
DNA 2: TGGTGGCTACGACGGGATT
B6: UCUCCAC (DNA:RNA)
RNA: B1 RNA with G25U, A26C, C27U, G28C, G29C
DNA 1: CAATCTGAATTCCGGTCTCCC
DNA 2: TGGTGGCTACGACGGGATT
B7: UCUAGAC (DNA:RNA)
RNA: B1 RNA with G25U, A26C, C27U, G28A
DNA 1: CAATCTGAATTCCGGTCTCCC
DNA 2: TGGTGGCTACGACGGGATT
B8: UCGCGAG (DNA:RNA)
RNA: B1 RNA with G25U, A26C, C27G, G28C, C31G
DNA 1: CAATCTGAATTCCGGTCTCCC
DNA 2: TGGTGGCTACGACGGGATT
B9: CUAACCA (DNA:RNA)
RNA: GGGAGACCGGAAUUCAGAUUGUCCCUAACCAUUAAAUCCCGUCGUAGCCACCA
DNA 1: CAATCTGAATTCCGGTCTCCC
DNA 2: TGGTGGCTACGACGGGATT
B10: GUCCGUG (DNA:RNA)
RNA: B1 RNA with A26U, G28C, A30U, C31G
DNA 1: CAATCTGAATTCCGGTCTCCC
DNA 2: TGGTGGCTACGACGGGATT
B11: UGAUUGA (DNA:RNA)
RNA: B9 RNA with C25U, U26G, A28U, C29U, C30G
DNA 1: CAATCTGAATTCCGGTCTCCC
DNA 2: TGGTGGCTACGACGGGATT
B12: CAGCUAG (DNA:RNA)
RNA: B1 RNA with G25C, C27G, G28C, G29U, C31G
DNA 1: CAATCTGAATTCCGGTCTCCC
DNA 2: TGGTGGCTACGACGGGATT
B13: GACUAUA (DNA:RNA)
RNA: B1 RNA with G28U, G29A, A30U, C31A
DNA 1: CAATCTGAATTCCGGTCTCCC
DNA 2: TGGTGGCTACGACGGGATT
B14: CCUAGAA (DNA:RNA)
RNA: B9 RNA with U26C, A27U, C29G, C30A
DNA 1: CAATCTGAATTCCGGTCTCCC
DNA 2: TGGTGGCTACGACGGGATT
B15: CAAUGAA (DNA:RNA)
RNA: B9 RNA with U26A, A28U, C29G, C30A
DNA 1: CAATCTGAATTCCGGTCTCCC
DNA 2: TGGTGGCTACGACGGGATT
B16: GGCAACC (DNA:RNA)
RNA: B1 RNA with A26G, G28A, G29A, A30C
DNA 1: CAATCTGAATTCCGGTCTCCC
DNA 2: TGGTGGCTACGACGGGATT
B17: AAGCAAU (DNA:RNA)
RNA: B1 RNA with G25A, C27G, G28C, G29A, C31U
DNA 1: CAATCTGAATTCCGGTCTCCC
DNA 2: TGGTGGCTACGACGGGATT
B18: UGCAAUU (DNA:RNA)
RNA: B9 RNA with C25U, U26G, A27C, C29A, C30U, A31U
DNA 1: CAATCTGAATTCCGGTCTCCC
DNA 2: TGGTGGCTACGACGGGATT
B19: AGUGUGG (DNA:RNA)
RNA: B1 RNA with G25A, A26G, C27U, G29U, A30G, C31G
DNA 1: CAATCTGAATTCCGGTCTCCC
DNA 2: TGGTGGCTACGACGGGATT
B20: CUCCAUG (DNA:RNA)
RNA: B9 RNA with A27C, A28C, C29A, C30U, A31G
DNA 1: CAATCTGAATTCCGGTCTCCC
DNA 2: TGGTGGCTACGACGGGATT
B21: CCACGAG (DNA:RNA)
RNA: B9 RNA with U26C, A28C, C29G, C30A, A31G
DNA 1: CAATCTGAATTCCGGTCTCCC
DNA 2: TGGTGGCTACGACGGGATT
B22: GGCGUAU (DNA:RNA)
RNA: B1 RNA with A26G, G29U, C31U
DNA 1: CAATCTGAATTCCGGTCTCCC
DNA 2: TGGTGGCTACGACGGGATT
B23: GUUCUGU (DNA:RNA)
RNA: B9 RNA with C25G, A27U, A28C, C29U, C30G, A31U
DNA 1: CAATCTGAATTCCGGTCTCCC
DNA 2: TGGTGGCTACGACGGGATT
B24: AUAACAC (DNA:RNA)
RNA: B9 RNA with C25A, C30A, A31C
DNA 1: CAATCTGAATTCCGGTCTCCC
DNA 2: TGGTGGCTACGACGGGATT
B25: UAUAACA (DNA:RNA)
RNA: B9 RNA with C25U, U26A, A27U, C29A
DNA 1: CAATCTGAATTCCGGTCTCCC
DNA 2: TGGTGGCTACGACGGGATT
B26: UCCGUCC (DNA:RNA)
RNA: B1 RNA with G25U, A26C, G29U, A30C
DNA 1: CAATCTGAATTCCGGTCTCCC
DNA 2: TGGTGGCTACGACGGGATT
B27: GUUGGUG (DNA:RNA)
RNA: B1 RNA with A26U, C27U, A30U, C31G
DNA 1: CAATCTGAATTCCGGTCTCCC
DNA 2: TGGTGGCTACGACGGGATT
B28: CUCAUAG (DNA:RNA)
RNA: B9 RNA with A27C, C29U, C30A, A31G
DNA 1: CAATCTGAATTCCGGTCTCCC
DNA 2: TGGTGGCTACGACGGGATT
B29: AGCCUUC (DNA:RNA)
RNA: B1 RNA with G25A, A26G, G28C, G29U, A30U
DNA 1: CAATCTGAATTCCGGTCTCCC
DNA 2: TGGTGGCTACGACGGGATT
B30: ACGCACA (DNA:RNA)
RNA: B9 RNA with C25A, U26C, A27G, A28C, C29A
DNA 1: CAATCTGAATTCCGGTCTCCC
DNA 2: TGGTGGCTACGACGGGATT
B31: UCAUUCG (DNA:RNA)
RNA: B9 RNA with C25U, U26C, A28U, C29U, A31G
DNA 1: CAATCTGAATTCCGGTCTCCC
DNA 2: TGGTGGCTACGACGGGATT

Changes are numbered by the printed parent chain; changes in the protein carry UniProt numbers. Some of the results follow.

This assay addresses T1, RBFOX1 RRM RbFoxmut (Fox-RRM*). The assay can be described thus: EMSA; HiTS-Eq, 1 nM pool, 10 min; buffer printed only for the single-RNA assays: 10 mM Tris pH 7.5, 150 mM NaCl, 3.4 mM EDTA, 0.001% NP-40, 30 C. To be noted: tags: His6 N-terminal (pET28a); label: 5' 32P. The gist of the method:
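Purified RbFox RRM (wild type or mutant) was equilibrated for 10 min in 50 µL with 1 nM of a 5′-radiolabelled pool of RNA with 7 randomized nucleotides, its flanks annealed to DNA oligonucleotides, across increasing protein concentrations. Free RNA was separated by 8% native PAGE, excised, reverse-transcribed, PCR-barcoded and sequenced on an Illumina HiSeq 2500. Relative association constants came from read-count changes of each variant against the control reaction, normalised to the cognate motif.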
A general note: A gel shift assay detects complexes by their altered migration in electrophoresis.
B1: the binding signal was 0.104 KA relative to UGCAUGU.
As for B2, the binding signal is 0.07 KA relative to UGCAUGU.
As to B3, the binding signal is 0.126 KA relative to UGCAUGU.
For the molecule B4, the binding signal was 0.0721 KA relative to UGCAUGU.
The value for B5 was 0.0713 KA relative to UGCAUGU; that for B6 was 0.124 KA relative to UGCAUGU; that for B7 was 0.0925 KA relative to UGCAUGU.
B8: the binding signal was 0.126 KA relative to UGCAUGU.
Turning to B9, the binding signal was 0.0911 KA relative to UGCAUGU.
B10: the binding signal was 0.146 KA relative to UGCAUGU.
Take B11: the binding signal was 0.209 KA relative to UGCAUGU.
The value for B12 was 0.0999 KA relative to UGCAUGU; that for B13 was 0.133 KA relative to UGCAUGU.
With B14 the figure was 0.0763 KA relative to UGCAUGU; with B15, 0.102 KA relative to UGCAUGU.
For B16, the binding signal was 0.0655 KA relative to UGCAUGU.
With B17, the binding signal was 0.0605 KA relative to UGCAUGU.
The value for B18 was 0.0703 KA relative to UGCAUGU; that for B19 was 0.13 KA relative to UGCAUGU.
With B20, the binding signal was 0.146 KA relative to UGCAUGU.
For B21, the binding signal was 0.121 KA relative to UGCAUGU.
With B22 the figure was 0.101 KA relative to UGCAUGU; with B23, 0.15 KA relative to UGCAUGU; with B24, 0.0733 KA relative to UGCAUGU.
The value for B25 was 0.0534 KA relative to UGCAUGU; that for B26 was 0.066 KA relative to UGCAUGU.
The value for B27 was 0.156 KA relative to UGCAUGU.
With B28, the binding signal is 0.148 KA relative to UGCAUGU.
On to B29, for which the binding signal is 0.127 KA relative to UGCAUGU.
The value for B30 was 0.105 KA relative to UGCAUGU; that for B31 was 0.0978 KA relative to UGCAUGU.

For the origin of these results see article PMC9911399, “Two distinct binding modes provide the RNA-binding protein RbFox with extraordinary sequence specificity”.
